The record followed here is a collection of fitness landscapes (doi:10.1126/science.1257360).

The list shows a part of the results. Where only a bound is given, the exact number is not on record here.

Sequences and labels used below:
B1: PhoQ; a variant is named by its letters at X, in order, P23837 (parent)
chain: MKKLLRLFFPLSLRVRFLLATAAVVLVLSLAYGMVALIGYSVSFDKTTFRLLRGESNLFYTLAKWENNKLHVELPENIDKQSPTMTLIYDENGQLLWAQRDVPWLMKMIQPDWLKSNGFHEIEADVNDTSLLLSGDHSIQQQLQEVREDDDDAEMTHSVAVNVYPATSRMPKLTIVVVDTIPVELKSSYMVWSWFIYVLSANLLLVIPLLWVAAWWSLRPIEALAKEVRELEEHNRELLNPATTRELTSLVRNLNRLLKSERERYDKYRTTLTDLTHSLKTPLXXLQXXLRSLRSEKMSVSDAEPVMLEQISRISQQIGYYLHRASMRGGTLLSRELHPVAPLLDNLTSALNKVYQRKGVNISLDISPEISFVGEQNDFVEVMGNVLDNACKYCLEFVEISARQTDEHLYIVVEDDGPGIPLSKREVIFDRGQRVDTLRPGQGVGLAVAREITEQYEGKIVAGESMLGGARMEVIFGRQHSAPKDE

The variants in this test derive from B1. Put plainly: enrichment ratio after two sorts for PhoP signalling (ratio (wild type AVST 3.29)); higher = more functional. As to conditions: with PhoP (E. coli).
Consider RISH, for which the enrichment ratio was at most 0.25. Take YRVR: the enrichment ratio was at most 0.25. For the variant MIFC, the enrichment ratio is at most 0.25. Consider SDEY, for which the enrichment ratio was at most 0.25. Consider PTYR, for which the enrichment ratio is at most 0.25. In the case of PGRC, the enrichment ratio is at most 0.25.

On to FLHD, for which the enrichment ratio was at most 0.25. Turning to VQLD, the enrichment ratio was at most 0.25. For the variant WDHP, the enrichment ratio was at most 0.25. Turning to PKNQ, the enrichment ratio was at most 0.25. The value for DFYK was at most 0.25; that for WHRE was at most 0.25. Take ATST: the enrichment ratio was found to be 4.28. In the case of VYVC, the enrichment ratio is at most 0.25. In the case of QSDS, the enrichment ratio is 20.8.

HIFA: the enrichment ratio was at most 0.25. Consider IGNL, for which the enrichment ratio is at most 0.25. DYCA: the enrichment ratio was at most 0.25. As for GEAM, the enrichment ratio worked out at 7.34.

On to VWVA, for which the enrichment ratio is at most 0.25. With RITP, the enrichment ratio was at most 0.25. Take IIQD: the enrichment ratio is at most 0.25. With NPMI, the enrichment ratio was at most 0.25.

Turning to FMWN, the enrichment ratio came to 1.04.

HYNY: the enrichment ratio is at most 0.25. For MAPF, the enrichment ratio was at most 0.25.

Turning to TCGW, the enrichment ratio worked out at 2.79. The value for KIET was at most 0.25. With PHQE, the enrichment ratio is at most 0.25. Then MHIM, with at most 0.25; and AGYM, with at most 0.25; and HWRA, with at most 0.25. Take LFQM: the enrichment ratio was at most 0.25. For the variant ANGS, the enrichment ratio was found to be 6.27. Consider YCQN, for which the enrichment ratio is at most 0.25. In the case of HGIF, the enrichment ratio is at most 0.25.

As for SRIY, the enrichment ratio is at most 0.25.

On to SWLG, for which the enrichment ratio was at most 0.25. On to HLDV, for which the enrichment ratio was at most 0.25. Take MKME: the enrichment ratio was at most 0.25. On to WGTK, for which the enrichment ratio is at most 0.25.

SMHQ: the enrichment ratio was at most 0.25. On to ERLQ, for which the enrichment ratio was at most 0.25.

Turning to THHW, the enrichment ratio was at most 0.25.

On to LWMM, for which the enrichment ratio is at most 0.25. TVWA: the enrichment ratio is at most 0.25. Take VFAT: the enrichment ratio was at most 0.25. In the case of ITYK, the enrichment ratio was at most 0.25. Regarding HHAK, the enrichment ratio was at most 0.25. Take VWAW: the enrichment ratio is at most 0.25. In the case of PTCD, the enrichment ratio was at most 0.25. In the case of VLFD, the enrichment ratio was at most 0.25. Turning to PNIS, the enrichment ratio was at most 0.25. CSTT: the enrichment ratio is at most 0.25. As for ENIE, the enrichment ratio is at most 0.25. Then FNHT, with at most 0.25.

For DWLM, the enrichment ratio was at most 0.25. On to WGIR, for which the enrichment ratio is at most 0.25.

As to ALSE, the enrichment ratio came out at 1.27.

Turning to AIAQ, the enrichment ratio was determined as 7.27. Consider FAQK, for which the enrichment ratio was at most 0.25. As to FEQQ, the enrichment ratio was at most 0.25.

With RQVN, the enrichment ratio was at most 0.25. Then HDKI, with at most 0.25; and KLMM, with at most 0.25; and TILC, with 2.14. SCNP: the enrichment ratio was at most 0.25.

Turning to AMAL, the enrichment ratio is 11.3.

Regarding PVSW, the enrichment ratio was at most 0.25. Consider MTRV, for which the enrichment ratio was at most 0.25. With HMAI, the enrichment ratio is at most 0.25. For the variant KFVT, the enrichment ratio is at most 0.25. Then HHEG, with at most 0.25; and SYNS, with at most 0.25. With YAIH, the enrichment ratio turned out to be 0.272. For the variant WKDL, the enrichment ratio was at most 0.25. On to TYQW, for which the enrichment ratio is at most 0.25. Consider VGGY, for which the enrichment ratio was at most 0.25. As to AYAS, the enrichment ratio was at most 0.25. On to QRQK, for which the enrichment ratio was at most 0.25. On to MQPG, for which the enrichment ratio was at most 0.25. As to KHGH, the enrichment ratio was at most 0.25. Take RCGC: the enrichment ratio was at most 0.25. The value for FRPF was at most 0.25.

As to KPPT, the enrichment ratio was at most 0.25.

For LAHW, the enrichment ratio is at most 0.25.

Consider PAAG, for which the enrichment ratio is at most 0.25. In the case of WIFS, the enrichment ratio was at most 0.25. For the variant QHKV, the enrichment ratio is at most 0.25. For QKAI, the enrichment ratio is at most 0.25. The value for GMIA was at most 0.25.

For WDRE, the enrichment ratio is at most 0.25. On to IQSW, for which the enrichment ratio is at most 0.25. With LSKD, the enrichment ratio was at most 0.25.

Take HKSV: the enrichment ratio was at most 0.25. The value for SSFI was 4.8; that for IIIR was at most 0.25. Then SIMD, with 4.7; and DAVI, with at most 0.25.

Consider EIFM, for which the enrichment ratio is at most 0.25.

For the variant HKMC, the enrichment ratio was at most 0.25. Then DHFH, with at most 0.25; and DMFQ, with at most 0.25; and AFLD, with at most 0.25. Consider AHCP, for which the enrichment ratio was at most 0.25.

Take KMTD: the enrichment ratio was at most 0.25. For the variant FRKS, the enrichment ratio is at most 0.25. As to GYCY, the enrichment ratio was at most 0.25.

Turning to SRLK, the enrichment ratio is at most 0.25.

With KLWS, the enrichment ratio was at most 0.25.

On to LPWR, for which the enrichment ratio was found to be 0.317. Then VEWF, with at most 0.25; and CSLA, with 2.15. With FCVN, the enrichment ratio was at most 0.25. Turning to RGFD, the enrichment ratio was at most 0.25.

Take FPEC: the enrichment ratio was at most 0.25. On to ASDS, for which the enrichment ratio was at most 0.25.

IHPV: the enrichment ratio is at most 0.25. For the variant VGTP, the enrichment ratio was at most 0.25. For WSSA, the enrichment ratio was at most 0.25. Regarding WFSE, the enrichment ratio is at most 0.25. For HVFK, the enrichment ratio was at most 0.25. WYQL: the enrichment ratio was at most 0.25. In the case of WQNP, the enrichment ratio was at most 0.25. As for GGVT, the enrichment ratio was at most 0.25.

For KLVN, the enrichment ratio was at most 0.25.

Turning to STQH, the enrichment ratio amounted to 4.53. As for QHDA, the enrichment ratio was 10.1. Then PCHH, with at most 0.25.

As to VLLV, the enrichment ratio was determined as 0.318.

In the case of LWVR, the enrichment ratio is at most 0.25. With TGSP, the enrichment ratio was at most 0.25. For the variant MYPC, the enrichment ratio is at most 0.25. For the variant QVCM, the enrichment ratio was at most 0.25. Take PSYD: the enrichment ratio was at most 0.25. As for MAPH, the enrichment ratio is at most 0.25. In the case of FTPP, the enrichment ratio was at most 0.25.

In the case of NFTT, the enrichment ratio is at most 0.25. The value for LVEK was at most 0.25; that for TVFN was 0.373; that for STGL was 9.48.

For DKQW, the enrichment ratio is at most 0.25. For the variant TGFK, the enrichment ratio is at most 0.25.

As for SFNM, the enrichment ratio was at most 0.25.

Take RHVM: the enrichment ratio was at most 0.25. The value for HWFD was at most 0.25; that for IFGS was at most 0.25; that for PSKC was at most 0.25. Turning to HTFI, the enrichment ratio was at most 0.25. Then LNST, with at most 0.25; and KLYT, with at most 0.25. With PGYL, the enrichment ratio is at most 0.25. On to YENL, for which the enrichment ratio is at most 0.25.
